Source: the supplement of paper PMC4166925
± gives the standard deviation of the averaged measurements. Over roughly 33,000 sequences, “E-score (dimensionless, -0.5 to 0.5)” has its median near -0.046; the highest 2% begin near 0.36. The list shows a part of the results.

test system: T1, SpTbr T-box DNA-binding domain (GST fusion); experiment: PBM E-score of 8-mer (E-score (dimensionless, -0.5 to 0.5)); Tbr is Tbrain of the sea star Patiria miniata (Pm) or the sea urchin Strongylocentrotus purpuratus (Sp); higher = stronger binding preference; most listed sequences are background and not binding sites; conditions: the construct has about 5 more residues each side
T1 sequence: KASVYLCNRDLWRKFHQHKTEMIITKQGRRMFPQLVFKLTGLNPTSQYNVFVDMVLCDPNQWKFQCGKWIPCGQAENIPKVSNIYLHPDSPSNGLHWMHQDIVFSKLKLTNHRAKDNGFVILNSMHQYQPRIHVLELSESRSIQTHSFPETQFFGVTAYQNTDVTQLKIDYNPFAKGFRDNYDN
Summary of the method: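 Using the Universal PBM Analysis Suite, every ungapped 8-mer received an enrichment E-score averaged over duplicate arrays. Probe intensities came from double-stranded Universal Agilent oligonucleotide arrays incubated with 200 nM GST-fused Tbr T-box DNA-binding domain in PBS (pH 7.5). That protein was expressed in BL21 E. coli at 20 °C and purified by glutathione affinity chromatography.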

Sequence	PBM E-score of 8-mer
AAGGTTTA	-0.14 ± 0.011
ACATACCC	-0.125 ± 0.037
GCAAAGGA	-0.137 ± 0.023
ATCAACTA	0.00344 ± 0.03
ATATTCCC	-0.0234 ± 0.015
GAATTGCC	0.0106 ± 0.041
GACCAACC	-0.166 ± 0.066
AAAGCAGA	-0.125 ± 0.033
CAAGAGGA	0.00677 ± 0.073
ATACAGAA	-0.0731 ± 0.052
CATGGCGG	-0.194 ± 0.045
CCGTGGCG	0.0364 ± 0.062
CCTTAAAG	-0.14 ± 0.083
AGCTGGTG	0.0589 ± 0.13
CATTTAGG	-0.124 ± 0.024
GCTTCGGA	-0.151 ± 0.019
GATTATGA	-0.122 ± 0.0078
CAAGTTCA	0.184 ± 0.021
CCGTTCGA	-0.145 ± 0.12
CGCGGCTC	0.218 ± 0.0081
CTGCAGAA	-0.137 ± 0.0057
CAGATGCA	-0.0647 ± 0.047
AACCACGA	0.0606 ± 0.04
CATAACCC	-0.235 ± 0.028
CTTGCAAA	0.0819 ± 0.029

Sequence	PBM E-score of 8-mer
GAATTGTA	-0.0667 ± 0.074
AGAAACAA	-0.113 ± 0.068
ACATTAAG	-0.139 ± 0.1
CCCGCCGA	-0.185 ± 0.14
ACCGGTTA	-0.0221 ± 0.0009
GTTGGGTA	-0.1908 ± 0.0016
GGAGGCTA	-0.213 ± 0.011
CCCAAGGC	-0.0975 ± 0.08
ATAATCGC	0.0913 ± 0.063
GTGTTATA	0.4 ± 0.034
CCAAAAAG	-0.148 ± 0.0032
ACCACGGG	0.0545 ± 0.0064
AATTTTAC	-0.131 ± 0.087
AATTAGCT	-0.0837 ± 0.018
GCCCCCCC	-0.255 ± 0.053
CTGCGGAA	-0.19 ± 0.043
AGCGCGAA	0.405 ± 0.019
GATATTCA	-0.0962 ± 0.058
TCCTTGAA	-0.29 ± 0.038
AGGGTTCG	-0.0552 ± 0.012
TATTGACA	0.278 ± 0.019
ACGGATAT	-0.181 ± 0.01
CCAGGTCC	-0.113 ± 0.031
CTCTCACC	0.38 ± 0.021
ACAGCCCT	-0.109 ± 0.054

Sequence	PBM E-score of 8-mer
CGACATCG	0.0463 ± 0.043
GTTATCTA	0.0706 ± 0.0013
GACCAGCA	-0.126 ± 0.021
AACACCGT	0.243 ± 0.091
CCCTCTTA	-0.0837 ± 0.0085
AAGGCTTG	-0.15 ± 0.021
CAACGTAC	-0.00945 ± 0.021
CGATAGCG	0.219 ± 0.009
CCAGCGGA	-0.0913 ± 0.043
ACTAAATA	-0.131 ± 0.019
ACGCATGC	-0.136 ± 0.041
CTATAATA	-0.22 ± 0.028
AGGGGTAT	-0.258 ± 0.084
CAAGCATA	-0.233 ± 0.018
GTCGCGGA	0.102 ± 0.055
AACATAGC	0.112 ± 0.0027
CACATCCA	0.268 ± 0.046
GCATAGGC	-0.219 ± 0.021
ACAACACT	0.345 ± 0.0051
CCAAATAC	-0.0967 ± 0.0038
ACGCCGTA	-0.0348 ± 0.0028
GGATGTTA	-0.0817 ± 0.033
CTCGGAAA	-0.132 ± 0.012
CTTGCAGA	-0.212 ± 0.082
GTAAAAGA	0.113 ± 0.045

Sequence	PBM E-score of 8-mer
ACCAAAGT	0.0243 ± 0.011
AACCAGTG	-0.00855 ± 0.045
CGAAGCAG	-0.114 ± 0.076
TTCCTCAA	-0.206 ± 0.082
ACAGCTGG	-0.00023 ± 0.086
GAAAGCGC	0.145 ± 0.048
GAACCTTC	-0.0942 ± 0.03
CCTAGACG	0.0153 ± 0.025
CTAATTTA	-0.154 ± 0.054
CACTGCAG	0.16 ± 0.011
AGATTCGC	0.1 ± 0.037
ATACCACG	-0.0212 ± 0.022
ATGGCGTG	0.138 ± 0.036
CGTGTACA	0.101 ± 0.0036
CACTTTAA	0.196 ± 0.064
CCGCCGCG	-0.00953 ± 0.015
ATCCTTTG	-0.247 ± 0.0049
ACCTTTTA	0.11 ± 0.0059
GATCGGCC	-0.185 ± 0.055
GTATGCAC	0.0616 ± 0.043
CACTTTTC	0.24 ± 0.025
ATGCCCGG	-0.0547 ± 0.0029
AAAATCCT	-0.228 ± 0.048
CCTGGATA	-0.0934 ± 0.048
ACCAGCTC	-0.0336 ± 0.0079

Sequence	PBM E-score of 8-mer
CGTCAACG	0.321 ± 0.0043
ACATCGCG	0.275 ± 0.034
TAAGTTAA	-0.102 ± 0.091
GATTGTGC	0.109 ± 0.006
CCTGCCGC	0.0182 ± 0.0095
TCGGTAAA	-0.0749 ± 0.016
ACTGACGA	-0.0709 ± 0.038
AGATACTC	-0.282 ± 0.035
AGTCTCCG	-0.19 ± 0.036
GCTGCCAC	0.178 ± 0.059
AAGGACAT	-0.00571 ± 0.042
GAAAAATA	-0.246 ± 0.077
GAGTACTC	-0.103 ± 0.11
GCAGTGTA	-0.129 ± 0.086
AACACTCA	0.31 ± 0.0041
AGGAGCCA	-0.00757 ± 0.016
TGGTGGAA	-0.0461 ± 0.00048
ACAGGCCG	-0.0254 ± 0.015
ATTTCTTG	-0.098 ± 0.035
GACGCAAC	0.128 ± 0.031
AAGTCCAT	-0.184 ± 0.035
ACAAGGTC	0.202 ± 0.026
ATCCATCC	-0.195 ± 0.019
GTAAGCCA	-0.199 ± 0.076
CATCATGC	-0.137 ± 0.03

Sequence	PBM E-score of 8-mer
AAGCGGAA	0.0108 ± 0.08
GCACTTCA	0.31 ± 0.032
TCTGAAAA	-0.27 ± 0.062
CATATAAA	-0.255 ± 0.0066
GAGCCACC	-0.0718 ± 0.02
ATGCAAAA	-0.285 ± 0.068
CATCACCG	-0.145 ± 0.11
CGGATCTC	-0.229 ± 0.027
CCTCGAAC	0.0681 ± 0.055
CTCTCGGA	-0.165 ± 0.012
CATTATGC	-0.168 ± 0.011
CCCATATA	-0.307 ± 0.014
GGGACACA	0.0277 ± 0.035
AGTGAAAC	0.0121 ± 0.054
CCCATCCG	-0.166 ± 0.027
ATATTCTC	-0.0643 ± 0.031
CATATGAC	-0.0145 ± 0.039
GAGTTACA	0.0163 ± 0.064
AGTTCACG	0.338 ± 0.049
CCTGGCGC	0.273 ± 0.0081
CCGACAAA	0.0247 ± 0.0091
CCGAGAAG	-0.00438 ± 0.03
CAACTCCC	-0.0195 ± 0.00078
CGCTTCGC	0.32 ± 0.039
AAGTTCAC	0.179 ± 0.052

Sequence	PBM E-score of 8-mer
CGGTGAGC	0.0357 ± 0.021
ATAGTGTC	0.272 ± 0.07
CGCAAGTA	0.164 ± 0.014
AACCGAAC	-0.157 ± 0.024
CCGCTCGA	-0.129 ± 0.018
CCTGTCTA	-0.164 ± 0.019
AATGGACA	-0.0107 ± 0.054
GCGGAGAA	0.059 ± 0.053
TGTTATAA	0.21 ± 0.085
ATTCACGG	0.259 ± 0.00064
GTTAAGAA	0.0677 ± 0.082
AGCTAGTG	0.109 ± 0.038
CCTCGTGA	0.122 ± 0.019
AACCCAAT	-0.307 ± 0.013
CAACCCAC	0.0871 ± 0.05
CCCTGTAC	-0.0689 ± 0.075
AACACTTC	0.407 ± 0.0093
ACCACCCT	0.0155 ± 0.074
ATCGGCAC	0.138 ± 0.013
CTATGGGC	-0.182 ± 0.008
CCCCGCGC	0.0261 ± 0.1
GCCCGGGA	-0.206 ± 0.098
